Results published in ChEMBL document CHEMBL1201862, “PubChem BioAssay data set” (2004).
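Cells were grown in 96-well plates and exposed to each compound for 48 hours at five concentrations; endpoints were interpolated linearly between bracketing concentrations, or set to the highest concentration if not reached. At the GI50, growth is halved.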 Calls of active or inactive are those of the source. Cut-off read from the data, not from the text of the source: active = GI50 up to about 1.1 µM and inactive = higher.

tested on: NCI-H322M; assay: growth of human tumour cells (NCI), 48 h

Row | Structure (SMILES) | GI50
1 | O=C(CCl)Nc1ccc(-c2nc3ccccc3s2)cc1 | inactive: 5.35 µM
2 | O=C1NC(c2ccccc2Cl)Nc2ccccc21 (configuration not stated) | inactive: 47.9 µM
3 | C/C=C/c1cc2c(cc1O)CC[C@@H]1[C@@H]2CC[C@]2(C)[C@@H](O)CC[C@@H]12 | active: 0.144 µM
4 | COc1cc(C2c3cc4c(cc3OC(NCc3ccccc3)C2C)OCO4)cc(OC)c1OC (configuration not stated) | active: 0.417 µM
5 | CC1=C(O)C(O)=C(C2=C(O)C(O)=C(C)C(=O)C2=O)C(=O)C1=O | inactive: 47.9 µM
6 | CCC(=O)CCC1=Nc2nnc(CCCCc3nnc4n3C(=O)C(CCC(=O)CC)=N4)n2C1=O | inactive: > 100 µM
7 | N=C(N)N/N=C/c1c(-c2ccc(N)cc2)nc2sccn12 | inactive: 20.7 µM
8 | CC(=O)N/C(=C\c1ccccc1/C=C(\NC(C)=O)c1nc2cc(C)c(C)cc2[nH]1)c1nc2cc(C)c(C)cc2[nH]1 | inactive: 14.3 µM
9 | NC1=CN2c3ccccc3N(CC(=O)N3CCOCC3)C2C=C1 (configuration not stated) | inactive: > 100 µM
10 | COc1ccccc1NC(=S)Nc1cc(C)cc(C)n1 | inactive: > 100 µM
11 | c1cc2nsnc2c2c[nH]cc12 | inactive: > 100 µM
12 | Nc1nc(Cl)cc(NCC2(O)CCCC2)n1 | inactive: > 100 µM
13 | C=C(C)[C@@H]1CCC2=C[C@H](OC2=O)[C@@]2(C)C[C@@H]2C(=O)/C=C(/C)C(=O)[C@H]1OC(C)=O | inactive: 42.6 µM
14 | N#C/N=C(\N)NCCO | inactive: > 100 µM
15 | N#CC(C#N)=C1SCC(=O)CS1 | inactive: > 100 µM
16 | Cc1cccc(C(C)O)n1 (configuration not stated) | inactive: > 100 µM
17 | CCNC(=O)c1cc(Cl)ccc1NC(=O)C12CC3CC(CC(C3)C1)C2 | inactive: 25.6 µM
18 | O=c1[nH]cc(C(F)(C(F)(F)F)C(F)(F)F)c(=O)[nH]1 | inactive: > 100 µM
19 | NCCNc1ccc(NCCN)c2c1C(=O)c1c(O)ccc(O)c1C2=O | active: 0.192 µM
20 | COc1ccc(Cc2nc3ccccc3s2)cc1OC | inactive: 26.4 µM
21 | CCOC(=O)c1sc2nc(-c3ccccc3)nn2c1CBr | inactive: 2.62 µM
22 | NC1C/C(=N\O)c2c(I)sc(I)c21 (configuration not stated) | inactive: 16.8 µM
23 | NC(=O)N(O)c1cccc(Br)c1 | inactive: > 100 µM
24 | CC#CCCCC1(C)CCCNC1=S (configuration not stated) | inactive: > 10 µM
25 | O=C1C[C@@H](c2ccc(O)cc2)[C@@]2(O1)C(=O)O[C@H]([C@@H](O)CO)[C@@H]2O | inactive: > 100 µM

Row | Structure (SMILES) | GI50
26 | CC(N)Cc1cccc(C(F)(F)F)c1 (configuration not stated) | inactive: > 100 µM
27 | CN(C)CCOc1ccc2[nH]c(C(=O)N3CC(CCl)c4c3cc(N)c3ccccc43)cc2c1 (configuration not stated) | active: < 0.01 µM
28 | CC(C)(C)[Si](C)(C)OCC1C=CC(n2cnc3c(N)ncnc32)O1 (configuration not stated) | inactive: > 81.1 µM
29 | c1ccc(C(c2ccccc2)[P+](c2ccccc2)(c2ccccc2)c2ccccc2)cc1 | inactive: 1.75 µM
30 | O=C(O)C1CC=CCC1C(=O)Nc1cccc(O)c1 (configuration not stated) | inactive: > 100 µM
31 | O=C(/C=C/c1cccs1)c1ccc(C(=O)/C=C/c2cccs2)cc1 | inactive: > 100 µM
32 | CCOC(=O)CSc1nc(-c2ccc(OC)cc2)c(C#N)c(=O)[nH]1 | inactive: > 100 µM
33 | C=C1CC(COc2ccc3c(C)c(C)c(=O)oc3c2C)(c2ccccc2)OC1=O (configuration not stated) | inactive: 11.7 µM
34 | COc1cccc2c1C(=O)c1c(O)c3c(c(O)c1C2=O)C[C@@](O)(C(C)=O)C[C@@H]3OC1CC(N(C)C)C(O)C(C)O1 (some centres not stated) | active: 0.0035 µM
35 | C=C(C)COC(=O)COCC(=O)OCC(=C)C | inactive: > 100 µM
36 | Cc1nnc2n(c1=O)CCN2C | inactive: > 100 µM
37 | O=C(O[C@H]1[C@@H]2C=CO[C@@H](OC3OC(CO)C(O)C(O)C3O)[C@@H]2[C@@]2(CO)O[C@@H]12)c1ccc(O)c(O)c1 (some centres not stated) | inactive: > 100 µM
38 | CCOC(=O)C(CO)c1nc2c([nH]c1=O)c(=O)n(C)c(=O)n2C (configuration not stated) | inactive: > 100 µM
39 | CCOC(=O)NNC(=O)NCCCCNC(=O)NNC(=O)OCC | inactive: > 100 µM
40 | CCOC(O)C(F)(F)F (configuration not stated) | inactive: > 100 µM
41 | Nc1ccccc1CC(O)C(=O)O (configuration not stated) | inactive: > 100 µM
42 | O=c1/c(=C/c2cccc([N+](=O)[O-])c2)sc2nc3ccccc3n12 | inactive: 46.9 µM
43 | S=C1NNC(=S)NN1 | active: > 1 µM
44 | CN(C)C1(N(C)C)Oc2c(c(=O)n(C)c(=O)n2C)C(c2ccccc2)C1(F)F (configuration not stated) | inactive: > 100 µM
45 | C=CC(O)(CBr)CCC(Br)C(=C)C (configuration not stated) | inactive: > 10 µM
46 | COc1cc(C2c3cc4c(cc3OC(O)C2C)OCO4)cc(OC)c1OC (configuration not stated) | active: 0.614 µM
47 | O=C(COC(=O)c1cccc2c(=O)c3ccccc3[nH]c12)Nc1ccc(Cl)cc1 | inactive: 95.7 µM
48 | CCOc1cn(C2CC(O)C(CO)O2)c(=O)[nH]c1=O (configuration not stated) | inactive: > 100 µM
49 | C/C=C\C(CC(=O)NCCC1CN(C(=O)OCc2ccccc2)c2ccccc21)CC(=O)OC (configuration not stated) | inactive: > 100 µM
50 | O=C(CCN1CCN2c3ccccc3CCC2C1)c1ccc(F)cc1 (configuration not stated) | inactive: > 100 µM

Row | Structure (SMILES) | GI50
51 | Oc1ccc(/C=N/CC2CCCN3CCCCC23)cc1 (configuration not stated) | inactive: 24.6 µM
52 | CC12CCC(C(=O)O1)C(C)(C)O2 (configuration not stated) | inactive: > 100 µM
53 | OCC12C=CC(C1)c1ccccc12 (configuration not stated) | inactive: > 100 µM
54 | CC(C)CC/N=c1/cc2n(-c3ccc(Cl)cc3)c3ccccc3nc-2cc1Nc1ccc(Cl)cc1 | inactive: 13.8 µM
55 | Cc1c(N)nc(C(CC(N)=O)NCC(N)C(N)=O)nc1C(=O)NC(C(=O)NC(C)C(O)C(C)C(=O)NC(C(=O)NCCc1nc(-c2nc(C(=O)NCCCNCCCCN)cs2)cs1)C(C)O)C(OC1OC(CO)C(O)C(O)C1OC1OC(CO)C(O)C(OC(N)=O)C1O)c1c[nH]cn1 (configuration not stated) | inactive: > 10 µM
56 | O=C1CCN2C(=N1)Sc1ccccc12 | inactive: > 100 µM
57 | CC(=O)/C=C\C1CC2C=CC1C2 (configuration not stated) | inactive: 27 µM
58 | [N-]=[N+]=Nc1c(-c2ccccc2)c(=O)n(-c2ccccc2)c2ccccc12 | inactive: 22.2 µM
59 | COc1ccccc1NCc1cccc2c(=O)c3ccc(Cl)cc3oc12 | inactive: > 100 µM
60 | CCS(=O)(=O)CCn1cnc2c1c(=O)n(C)c(=O)n2C | inactive: > 100 µM
61 | C=C1N(S(=O)(=O)c2ccc(C)cc2)C(=O)OCC12CCCC2 | inactive: > 100 µM
62 | COC(=O)/C=C1\SC2(O\C1=N/c1ccccc1)C1CC3CC(C1)CC2C3 (configuration not stated) | inactive: > 100 µM
63 | CCOC(=O)C1=C(C)NC2=C(C(=O)N(c3ccccc3)C2c2ccccc2)C1c1ccccc1 (configuration not stated) | inactive: 16.6 µM
64 | CC(=O)Oc1c(-c2ccccc2)[nH]c2cc([N+](=O)[O-])c(/C(Cl)=C/c3ccccc3)cc12 | inactive: 10.6 µM
65 | O=C1C(Cl)C(c2cccc([N+](=O)[O-])c2)N1n1cnc2ccccc2c1=O (configuration not stated) | inactive: 53.1 µM
66 | Cc1cc(O)nc(CNC(=O)c2ccc3ccccc3c2)n1 | inactive: > 100 µM
67 | CC1(CO)OC(n2cnc3cncnc32)CC1O (configuration not stated) | inactive: > 100 µM
68 | COc1cc2c3c(c1OCc1ccccc1)NCCC3NCC2 (configuration not stated) | inactive: > 100 µM
69 | Cc1cc2c(cc1-c1cc3c(cc1C)C(C(C)C)=C(O)C(=O)/C3=C\Nc1nc(-c3ccccc3)cs1)/C(=C/Nc1nc(-c3ccccc3)cs1)C(=O)C(O)=C2C(C)C | inactive: 49 µM
70 | CCC1(C(=O)OC(C)(C)C)OC12C(C)CCCC2C (configuration not stated) | inactive: > 100 µM
71 | COc1ccc(N2C(=O)c3cc([N+](=O)[O-])cnc3S2(=O)=O)cc1 | inactive: > 100 µM
72 | O=C(O)CCC(c1ccccc1)(c1ccccc1)c1ccccc1 | inactive: 37 µM
73 | O=Cc1c2c(cc3c1CC1(C3)Cc3cc4c(c(C=O)c3C1)CCC4)CCC2 | inactive: 55.1 µM
74 | Cc1ncc([N+](=O)[O-])n1CCNC(=O)CCC(=O)NCCCn1ccnc1[N+](=O)[O-] | inactive: > 100 µM
75 | CCCCCCCCCCCCCCC(O)C1CCC(C(O)CCC(O)CCCCCC(O)CC2=CC(C)OC2=O)O1 (configuration not stated) | inactive: 1.48 µM

Row | Structure (SMILES) | GI50
76 | CCC1C(=O)C[C@H]2[C@@H]3C(O)CC4=CC(=O)CC[C@]4(C)[C@H]3CC[C@]12C (some centres not stated) | inactive: > 50 µM
77 | C=C(Cl)C(Br)(CCl)CCC(Br)C(C)(C)Cl (configuration not stated) | inactive: 7.53 µM
78 | O=C(CC(=O)c1ccccc1NC1=Cc2ccccc2C(=O)C1=O)C(=O)NC1=C(Cl)C(=O)c2ccccc2C1=O | inactive: 9.04 µM
79 | Cc1cc(-c2[nH]c(C(=O)O)cc2I)on1 | inactive: 43.4 µM
80 | C/C(CC(O)(C(F)(F)F)C(F)(F)F)=N/Nc1ccc([N+](=O)[O-])cc1[N+](=O)[O-] | inactive: 3.22 µM
81 | CC(C)=CC(=O)OC1C2C(C)C(=O)OC2C(O)C(C)C2C=CC(=O)C21C (configuration not stated) | inactive: 5.24 µM
82 | Cn1c(N2CCCC2)c(C=O)c(=O)n(C)c1=O | inactive: > 100 µM
83 | COc1ccc2c(c1)CCCN2S(=O)(=O)c1ccccc1[N+](=O)[O-] | inactive: 70.8 µM
84 | O=S(O)c1cc(Cl)c(O)c(Cl)c1 | inactive: > 100 µM
85 | N#CC1C(=O)C(=O)N(c2ccccc2)C1=O (configuration not stated) | inactive: > 100 µM
86 | O=C1C2c3[nH]c4ccccc4c3C3CCCCCC3C2C(=O)N1c1ccccc1 (configuration not stated) | inactive: > 64.9 µM
87 | Nc1nnc2ccc(Cl)cc2[n+]1[O-] | inactive: 26.3 µM
88 | COc1ccc(/C(C#N)=C(/N)SCc2ccccc2Cl)cc1 | inactive: 26.2 µM
89 | CC1c2ccccc2Cn2cc3c(c21)C(=O)c1cccc(OP(=O)(O)OCc2ccccc2)c1C3=O (configuration not stated) | inactive: > 100 µM
90 | CC(c1ccccc1)N1O[C@]12CC[C@@]1(C)C(CCCC13OCCO3)C2 (some centres not stated) | inactive: > 100 µM
91 | C[C@@H]1CC2(C[C@@H](C)C3[C@@H](CC4(C)CCCC5C6=CC(O)(CC[C@]34C)OC6=CC(=O)OC5(C)C)O2)OC1=O (some centres not stated) | inactive: > 100 µM
92 | CC1OC(c2ccccc2)=CC(OCc2ccccc2)[C@H]1OCc1ccccc1 (some centres not stated) | inactive: > 10 µM
93 | COC(=O)CC(C(C(=O)OCc1ccccc1)C(C)O)N1C(=O)OCC1c1ccccc1 (configuration not stated) | inactive: > 100 µM
94 | Cc1ccc(/C=C2\CCCCCC2=O)cc1 | inactive: > 100 µM
95 | Cn1cnc([N+](=O)[O-])c1Sc1nc2ccccc2[nH]1 | inactive: 21 µM
96 | CC(=O)Nc1ccc(Cl)c(Cl)c1 | inactive: > 100 µM
97 | CCOc1ccc(/C=C/c2cc(OC)c(OC)c(OC)c2)cc1 | inactive: 4.91 µM
